Assay results: PubChem BioAssay AID1508624 (National Center for Advancing Translational Sciences (NCATS), 2021)
The campaign covered roughly 48,000 compounds. About 120 (0.25%) were called active. Another 4% or so got no clear call; they are omitted. Calls follow the shape of the dose curve; as a rule, active = well fitted activation curve with a large enough effect; inconclusive = small, poorly fitted or top-dose-only effect, or another doubt; inactive = no such curve, though single readings can be large or run the other way. The list shows a part of the results.

assay: Primary qHTS for Identification of Small Molecule Activators of Huntingtin-Antisense Promoter Activity; settings: HEK293 HTT-AS promoter firefly luciferase reporter, 24 h; series mostly up to 57.5 µM; activity change, positive = activation: at the top concentration; also: nearly all actives have a fitted effect of over 55% in size
Procedure, shortened: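 Luminescence was read after Dual-Glo reagent and a 10 min room-temperature incubation. Values were normalized to vehicle (0% activity) and zero RLU (-100% activity). Reporter HEK293 cells had been exposed to compounds (up to 57.5 uM final) for 24 h.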

Activity change, positive = activation, inactive:
CSc1ccc(CNC(=O)Cn2ccc3cc(S(=O)(=O)N4CCCC4)ccc32)cc1 -32.6%
COc1ccccc1CNC(=O)CS(=O)(=O)Cc1nc(-c2ccccc2C)oc1C -24.1%
CN(C)c1ccc(C(=O)NCc2ccc3c(c2)CCN3C(=O)c2ccccc2)cc1 -15%
CC(C)CCNC(=O)CSc1nc2ccccc2nc1Cc1ccc(Cl)cc1 -6.39%
CC1CCN(c2nc(-c3ccc(Br)cc3)nc3ccccc23)CC1 -8.78%
CN(C)c1ccc(CNC(=O)c2sc3ncccc3c2-n2cccc2)cc1 -30.8%
Cc1cc(C)cc(NC(=O)CCN2C(=O)c3ccccc3Sc3ncccc32)c1 -27.4%
COc1cc(Cl)c(NS(=O)(=O)c2ccc(-c3coc(C)n3)cc2)c(OC)c1 -52.5%
CC1CCCCN1CCCNC(=O)Cn1ncc2c3ccccc3n(Cc3ccccc3F)c2c1=O (centres undefined) 3.18%
Cc1ccc(-c2cc(C(F)(F)F)c(C#N)c(SCC(=O)Nc3ccccc3F)n2)cc1 -20.7%
CCN(c1ncnc2c1cnn2-c1cccc(Cl)c1)C1CCCCC1 -59.5%
COCCn1c(C)cc(O)c(C(c2ccc(Cl)cc2)N2CCCCC2)c1=O (centres undefined) 2.87%
Cc1cc(C)c(NC(=O)CN2C(=O)CCSc3ccc(S(=O)(=O)N4CCCC4)cc32)c(C)c1 -10.4%
COc1cccc(CNC(=O)CN2C(=O)CSc3ccc(S(=O)(=O)N4CCCC4)cc32)c1 -3.82%
COc1ccc(C2C(=O)N(C3CCCCC3)CC(=O)N2C2CCCCC2)cc1 (centres undefined) -15.6%
Cc1ccc2oc(-c3cc(NC(=O)/C=C/c4ccco4)ccc3Cl)nc2c1 9.29%
CC(=O)Nc1nonc1-c1nc2ccccc2n1Cc1ccccc1Br -30.3%
COc1cc2c(cc1OC)C(COc1ccc3c(C)cc(=O)oc3c1)N(C(=O)CC(C)C)CC2 (centres undefined) 3.51%
CCC1Nc2cc(Cl)c(S(N)(=O)=O)cc2S(=O)(=O)N1 (centres undefined) -8.24%
Brc1ccc2nc(SCCOc3ccccc3)[nH]c2c1 16.4%
Cc1ccc2c(c1)N(C(=O)Nc1cccc3c1CCCC3)CC(C)O2 (centres undefined) -30.6%
Cc1ccccc1CN1CCCN(CC(=O)Nc2ccc3c(c2)OCCO3)S1(=O)=O -8.4%
COc1ccc(NC(=O)CCc2c(C)nc3c(-c4ccc(F)cc4)c(C)nn3c2C)c(OC)c1 -4.91%
COC(=O)c1cc(NC(=O)c2ccc(-c3ccc(Cl)cc3Cl)o2)cc(C(=O)OC)c1 -13%
CCOC(=O)c1noc2nc(C)n(Cc3ccc([N+](=O)[O-])cc3)c(=O)c12 -4.92%
Cc1cccc(Cn2nnc3c(=O)[nH]c(C4CCN(C(=O)c5ccc(F)cc5)CC4)nc32)c1 -14.3%
CN1CCN(C(CNC(=O)c2ccccc2)c2ccc3c(c2)OCO3)CC1 (centres undefined) -1.07%
O=C(NCc1cccc(Cl)c1)C1CCCN(c2ncnc3onc(-c4ccc(F)cc4)c23)C1 (centres undefined) -25.3%
CCn1c(=O)cc(SCC(=O)N2CCN(c3ccccc3F)CC2)c2ccccc21 7.36%
CCOc1ccc(NC(=O)c2c(NC(=O)c3cccs3)sc3c2CCC(C(C)(C)C)C3)cc1 (centres undefined) -5.56%
COc1ccccc1NC(=O)c1cc(S(=O)(=O)NCCC2=CCCCC2)ccc1F -27.3%
CCOc1ccc(NC(=O)CN(C)S(=O)(=O)c2cnc[nH]2)cc1 9.03%
COc1ccc(NC(=O)NC(C)c2c(-n3cccc3)sc3c2CCN(C)C3)c(OC)c1 (centres undefined) -11.8%
Nc1c(C(=O)Nc2cccc(C(F)(F)F)c2)c2ccccn2c1C(=O)c1ccccc1 8.28%
CC(C)(C)C(=O)Cn1c(=O)n(-c2ccc(Cl)c(Cl)c2)c(=O)c2c3c(sc21)CCCC3 -18%
Cc1cc(C)cc(N2CCn3c2nc2c3c(=O)n(CCCc3ccccc3)c(=O)n2C)c1 -0.999%
Cc1ccc(CNC(=O)CCCn2c(=O)c3ccccc3n(Cc3ccc(Cl)cc3)c2=O)cc1 -12.9%
CN(C(=O)CSc1nnc(-c2ccc([N+](=O)[O-])cc2)o1)c1ccccc1 -11.7%
Cc1ccc(CNC(=O)CCC(=O)N2CCSc3ccccc32)cc1 -7.97%
COc1ccc(CCNC(=O)Cn2cc(C(=O)c3ccc(F)cc3)c(=O)c3ccc(C)nc32)cc1OC -19.1%
CCOc1ccc(-c2noc(CSc3nnc(Cc4ccccc4)n3-c3cccc(C)c3)n2)cc1 -53.9%
Cc1ccc(-c2nc3cc(C(C)C)ccc3o2)cc1NC(=O)c1cc([N+](=O)[O-])ccc1N1CCOCC1 -43.5%
COCCCNC(=O)C1CCCN(c2nn3cc(-c4ccc(C)cc4)nc3s2)C1 (centres undefined) -30.6%
CNC(=O)C1CCN(c2nc3ccccc3nc2C(F)(F)F)CC1 -2.08%
CCc1ccc(NC(=O)N2CCN(C(=O)c3nsc4ccccc34)CC2)cc1 -33.6%
O=C(Nc1ccc(C(F)(F)F)cc1)N1CCC(N2CCCCC2)CC1 -11.9%
COc1cc(Cl)c(C)cc1NC(=O)c1cnc2c(-c3cccc(C)c3)c(C)nn2c1C -9.79%
Cc1ccsc1CN1CCc2nc(N3CCN(c4ccccc4F)CC3)ncc2C1 -28.1%
CNC(=O)c1ccc(CSc2nc3ccncc3n2Cc2ccc(C)cc2)cc1 -14.3%
CCCN(C(=O)Cn1cc(S(=O)(=O)N2CCN(c3ccccc3F)CC2)c2ccccc2c1=O)c1cccc(C)c1 -11.8%
COc1cccc(CNC(=O)Cn2c(C)c3cnn(-c4ccccc4)c(=O)c3c2C)c1 -18.4%
CCOc1ccc(OCC)c(Nc2nc3ccc(Cl)cc3n3cnnc23)c1 -3.14%
CCC(C)NC(=O)CCc1c(C)nc2cc(-c3ccc(OC)cc3OC)nn2c1C (centres undefined) -2.88%
Cc1cccc(CCNC(=O)C2CCN(c3nc4ccccc4nc3C(F)(F)F)CC2)c1 0.91%
CCc1cccc(NC(=O)c2ccc(CNS(=O)(=O)c3ccc4c(c3)C(C)(C)C(=O)N4C)cc2)c1 -48%
Cc1ccc(-n2ncc3c(NCC(C)C)ncnc32)c(C)c1 17.2%
COc1ccccc1-c1cc2nc(C)c(CCC(=O)Nc3cc(C)ccc3C)c(C)n2n1 -43.5%
CCc1ccc(NC(=O)Cn2cnc3sc(C)c(S(=O)(=O)N4CCN(c5ccccc5OC)CC4)c3c2=O)cc1 9.82%
Cc1ccc(C)c(NC(=O)Nc2cccc(-c3cn4cccnc4n3)c2)c1 -0.825%
Cc1oc(-c2ccccc2F)nc1CSc1nnc(C)n2c1cc1occc12 -4.66%
CC(C)(C)OC(=O)N1CCC(c2c(C(=O)N3CCOCC3)cnn2-c2cccc(F)c2)CC1 0.567%
COC(=O)c1ccccc1-n1cc2c(c1-c1cccc(C)c1)c(=O)n(C)c(=O)n2C -17.1%
CCOC(=O)c1cnc2ccc(Cl)cc2c1Nc1ccc(N2CCOCC2)cc1 -37.8%
O=C(CSc1nc2c(c(=O)[nH]1)CN(Cc1ccc3c(c1)OCO3)CC2)Nc1ccc(F)c(F)c1 -13.6%
Cc1cccc(-c2nc3ccccc3n3c(-c4ccccc4)c4c(=O)n(C)c(=O)n(C)c4c23)c1 -1.24% [at 11.5 µM, percent change from vehicle, -100% = no light]
O=C(Nc1ccc(F)c(Cl)c1)N1CCC(CN2CCc3ccccc3C2)CC1 -5.16%
CC(C)(C(=O)O)c1ccc(C(O)CCCN2CCC(C(O)(c3ccccc3)c3ccccc3)CC2)cc1 (centres undefined) -3.63%
O=c1cc(N2CCOCC2)oc2c(-c3cccc4c3sc3ccccc34)cccc12 -15%
CC(C)Oc1ccc(CNC(=O)Cn2ncn3nc(-c4cccs4)cc3c2=O)cc1 -25.7%
COC(=O)c1ccccc1-n1c(CCC(=O)O)ccc1-c1ccccc1 6.58%
O=C(NCc1ccccc1Cl)c1cc2cccc3c2n1CCS3 -42.9%
COc1cccc(CNC(=O)c2ccc3c(c2)nc2n3CCC(C)C2)c1OC (centres undefined) 4.46%
CCOC(=O)C1CCCN(C(=O)c2[nH]c3ccccc3c2Sc2ccc(Cl)cc2)C1 (centres undefined) -25.8%
COc1ccc(C(=O)NCC(c2ccco2)S(=O)(=O)c2cccs2)cc1OC (centres undefined) -17.6%
Cc1ccnc(NS(=O)(=O)c2ccc(NC(=O)c3nc(SC(C)C)ncc3Cl)cc2)n1 -0.363%
CCOc1ccc(CCNC(=O)c2cc3sc(CC)cc3n2C)cc1OCC -18%
Cc1ccc(S(=O)(=O)N2CCC(n3c(C)nc4cccnc43)CC2)c(C)c1 -36.1%
Cc1ccc(S(=O)(=O)c2cn(Cc3ccc(F)cc3)c3cc(N4CCCC4)c(F)cc3c2=O)cc1 -5.81%
Cc1ccc(CNC(=O)c2ccc(-c3nc(CS(=O)(=O)c4ccc(C)cc4)c(C)o3)cc2)cc1 -16.2%
COc1cc2c(cc1O)CCC1C2CC[C@@]2(C)C1CC[C@@H]2O (some centres undefined) -33.6%
CCc1ccccc1NC(=O)C(=O)NCCc1sc(-c2cccc(F)c2)nc1C -17.3%
Cc1[nH]c2ccccc2c1SCCNC(=O)c1ccccc1F -19.1%
COc1ccc(CCNC(=O)CSCc2nc(-c3ccc(OC)c(OC)c3)oc2C)cc1OC -20.7%
COc1cc(OC)c(NC(=O)c2ccc3c(Cl)c4c(nc3c2)CCCC4)cc1Cl -5.86%
CN1C(C)(C)CCCC1(C)C -8.15%
COCCNc1ccc(-c2nc(-c3cccc(C)c3)no2)cc1[N+](=O)[O-] 17.8%
CN1C(=O)c2ccccc2Sc2ccc(NC(=O)COc3ccc(Cl)cc3)cc21 -40.3%
CC1CCCN(C(=O)Cn2c(=O)n(CC3CCC(C(=O)NC(C)C)CC3)c(=O)c3sccc32)C1 (centres undefined) -5.85%
Cn1c(-n2cccc2)c(-c2c(-c3ccc(F)cc3)[nH]c3c2c(=O)[nH]c(=O)n3C)c(=O)[nH]c1=O -11%
COc1ccc(-n2ncc3c2ncn2nc(-c4ccc(Cl)cc4Cl)nc32)cc1 -6.84%
COc1cccc(OC)c1Cn1nnc2c(=O)[nH]c(C3CCN(C(=O)c4ccccc4)CC3)nc21 -15.2%
Cn1cc(-c2ccc3ncc(Cc4ccc5ncccc5c4)n3n2)cn1 -9.33%
COc1cccc(C2Nc3ccccc3-c3nnc(SCc4ccccc4)nc3O2)c1OC (centres undefined) -5.64%
Cc1ccc(S(=O)(=O)c2nc(-c3ccccc3)oc2SCC(=O)NC2CCCCC2)cc1 11.8%
